# From article PMC4336329 (PLoS ONE, 2015)
# About 14,000 (4.5%) of roughly 310,000 compounds showed an effect of 50% or more. Effects have a minus sign here. The list shows a part of the results.
# Target: human ether-à-go-go-related gene (hERG) potassium channel (human, UniProt Q12809)
# Assay: primary screen, population patch clamp on CHO cells stably expressing hERG
# 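Also: peak tail current of the secondary pulse compared with the same well before compound.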
# Chain of human ether-à-go-go-related gene (hERG) potassium channel (Q12809 whole entry, looked up): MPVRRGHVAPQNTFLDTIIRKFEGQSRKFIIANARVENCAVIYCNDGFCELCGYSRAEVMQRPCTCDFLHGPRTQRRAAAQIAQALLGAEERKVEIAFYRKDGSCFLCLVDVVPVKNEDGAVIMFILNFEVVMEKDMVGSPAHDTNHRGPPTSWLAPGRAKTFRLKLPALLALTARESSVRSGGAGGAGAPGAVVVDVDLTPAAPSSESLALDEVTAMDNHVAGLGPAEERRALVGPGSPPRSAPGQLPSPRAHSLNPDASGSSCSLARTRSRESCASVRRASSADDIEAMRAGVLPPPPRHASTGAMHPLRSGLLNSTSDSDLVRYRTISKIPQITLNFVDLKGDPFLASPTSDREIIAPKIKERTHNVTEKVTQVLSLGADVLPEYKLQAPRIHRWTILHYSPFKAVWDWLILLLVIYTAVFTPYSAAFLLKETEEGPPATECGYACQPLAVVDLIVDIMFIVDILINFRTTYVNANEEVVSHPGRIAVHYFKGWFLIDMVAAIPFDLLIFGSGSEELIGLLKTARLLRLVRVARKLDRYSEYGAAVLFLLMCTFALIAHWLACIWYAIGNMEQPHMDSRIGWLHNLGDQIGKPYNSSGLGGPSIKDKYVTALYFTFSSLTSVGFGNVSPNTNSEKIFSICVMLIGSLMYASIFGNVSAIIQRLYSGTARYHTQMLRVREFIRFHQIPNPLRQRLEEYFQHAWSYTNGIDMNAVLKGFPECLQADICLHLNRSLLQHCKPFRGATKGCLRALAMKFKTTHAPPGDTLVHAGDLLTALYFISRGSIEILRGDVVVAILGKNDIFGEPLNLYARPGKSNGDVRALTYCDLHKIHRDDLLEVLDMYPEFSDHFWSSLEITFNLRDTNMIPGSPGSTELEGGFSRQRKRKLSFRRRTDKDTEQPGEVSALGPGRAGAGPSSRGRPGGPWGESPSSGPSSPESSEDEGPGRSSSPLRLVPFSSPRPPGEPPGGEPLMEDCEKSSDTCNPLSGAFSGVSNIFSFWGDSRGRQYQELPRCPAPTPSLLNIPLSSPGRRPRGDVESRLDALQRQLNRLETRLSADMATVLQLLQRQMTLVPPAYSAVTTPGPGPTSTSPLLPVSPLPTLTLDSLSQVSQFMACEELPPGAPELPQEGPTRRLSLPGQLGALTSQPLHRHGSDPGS
row,SMILES,"hERG current change (%, negative = inhibition) at 10uM [%]"
1,Cc1cccc(NC(=O)c2sc3nc(N4CCOCC4)c4c(c3c2N)CCCC4)c1,14
2,CCOC(=O)CSc1nc2ccccc2c(=O)n1CC1COc2ccccc2O1 (stereo not shown),-3.47
3,COCCN(Cc1cc2cc(C)cc(C)c2nc1Cl)C(=O)Nc1ccccc1,-8.89
4,Cc1[nH]n(-c2ccccc2)c(=O)c1C(=O)Nc1ccccc1,-4.31
5,CC(C)c1ccc(NC(=O)c2ccc3c(c2)CCN3S(C)(=O)=O)cc1,-12.6
6,Cc1ccc(S(=O)(=O)N2CCCC2C(=O)Nn2cnnc2)cc1 (stereo not shown),6.37
7,O=C(NC1CCCCCCC1)c1ccc(Br)cc1,4.95
8,COc1ccc(Cl)cc1C(=O)CSc1nnnn1C1CCCCC1,-4.88
9,O=CC(Cl)P(=O)(N1CCCCC1)N1CCCCC1 (stereo not shown),17.4
10,COc1ccc(N/N=C(/C(N)=O)C2=NC(C)(C)Cc3ccccc32)cc1,1.85
11,NC(=O)C(c1ccccn1)c1ncc(C(F)(F)F)cc1Cl (stereo not shown),11.7
12,Cc1cc(C(=O)N(C2CCCCC2)C2CCCCC2)no1,-3.94
13,Cc1ccc(C23CC4CC(CC(CC(=O)N5CCOCC5)(C4)C2)C3)cc1,-36.9
14,CC(=O)c1cccc(NC(=O)C=C(C)C)c1,8.57
15,CC(C)N=C(Nc1ccccc1)c1cccnc1,-7.11
16,Cc1ccc(CCN2CC(C(=O)NCc3ccc4c(c3)OCO4)CC2=O)cc1 (stereo not shown),-37.2
17,CC(=O)c1cccc(CN2CCN(CC(C)C)C(CCO)C2)c1 (stereo not shown),5.29
18,O=C(Nc1ncnc2c1CCC2)C12CC3CC(CC(C3)C1)C2,1.11
19,[O-][n+]1c2c(nn1-c1ccc(Cl)c(Cl)c1)-c1nonc1CC2,23.9
20,C=CCN1C(=O)/C(=C\C=C2\N(C)c3ccccc3C2(C)C)SC1=S,10.7
21,O=C1NC(=S)N/C1=C/c1ccc(Oc2ccc(C(F)(F)F)cc2[N+](=O)[O-])c(Cl)c1,-0.81
22,O=C(Nc1cccnc1)c1ccc(-c2ccc(Cl)cc2)o1,-4.92
23,COCCCNC(=O)c1ccc(CS(=O)(=O)c2cccc(C(F)(F)F)c2)o1,-8.62
24,CC(=O)N1CCOCCOCCOCC1,14.3
25,CCOC(=O)C(CC)n1cnc2c(nnn2-c2ccc(OC)cc2)c1=O (stereo not shown),-16.3
26,CCOc1cc(C(=O)OC(C)C(=O)Nc2ccc(NC(C)=O)cc2)ccc1OCC(=O)N1CCCCC1 (stereo not shown),13.3
27,Cc1cc2ccccn2c1C(=O)c1cccc([N+](=O)[O-])c1,5.19
28,O=C(NCCCN1CCCC1)c1ccc2c(c1)N(Cc1ccccc1)CCS2,-69.6

row,SMILES,"hERG current change (%, negative = inhibition) at 10uM [%]"
1,O=C(Cc1ccccc1)Nc1ccc2oc(-c3cccnc3)nc2c1,4.69
2,COc1cc(/C=C2\CCc3c2nc2ccccc2c3C(=O)O)cc(OC)c1OC,-5.43
3,Cc1ccc(N2C(=O)CC(N3CCc4ccccc43)C2=O)cc1Cl (stereo not shown),15.6
4,Cn1c(CNC2CCCCC2)nc2ccccc21,-3.79
5,Cc1ccccc1C1N(c2nccs2)C(=O)C2CCCN21 (stereo not shown),-62.5
6,Cc1ccc(S(=O)(=O)n2[nH]c(=O)cc2N)cc1,10.5
7,N#Cc1c(SCC(=O)Nc2nc3ccc(Br)cc3s2)sc2c(O)cc(=O)[nH]c12,9.27
8,C/C(=N\NC(=O)c1ccc(F)cc1)c1ccc(N2CCOCC2)cc1,-16.7
9,COC(=O)[C@]1(Cc2ccccc2)N[C@H](c2ccc(-c3cc(C(C)=O)cs3)cc2)[C@@H]2C(=O)N(C)C(=O)[C@@H]21.O=C(O)C(F)(F)F,-6.3
10,O=C(CN1C(=O)CC(c2ccccc2)=Nc2ccccc21)NCc1ccccc1,2.62
11,N#Cc1ccccc1Cn1c(=O)n(Cc2ccc(C(=O)NCc3ccco3)cc2)c(=O)c2sccc21,3.38
12,Nc1ncnc2c1ncn2[C@@H]1O[C@H](CO)[C@@H](O)[C@@H]1O,3.71
13,COc1ccc(C(=O)Nc2ccc(-c3nnn(CC(=O)N4CCN(C(=O)c5ccco5)CC4)n3)cc2)cc1,7.09
14,Cn1cnc(S(=O)(=O)Nc2cc(-c3ccc(Cl)cc3)nn2C)c1,16.5
15,N#Cc1ccc(Oc2ccc(S(=O)(=O)N3CCCCC3)cn2)cc1,-24.7
16,CCOC(=O)c1sc(NC(=O)C(C)C)c(C#N)c1C,23.1
17,CC1CCN(C(=O)C(C)NCc2ccc(F)cc2)CC1.O=C(O)C(=O)O (stereo not shown),-3.9
18,CC(C)C(C)NC(=O)CSc1ccc(S(=O)(=O)N2CCOCC2)cn1 (stereo not shown),-1.56
19,Cc1ccc(C)c2c1cc(C)c1nnc(SCC(=O)Nc3nc4c(s3)CCCC4)n12,1.01
20,O=[N+]([O-])c1cc(F)c(N2CCCCC2)cc1Br,-3.83
21,Cc1cccc(NC(=O)CSc2nnc(CNC(=O)c3ccc(S(=O)(=O)N(C)C)cc3)n2-c2cccc(C)c2)c1,0.252
22,O=C(/C=C/c1c(F)cccc1Cl)Nc1ccncc1,-3.29
23,CCCCOC(=O)Nc1nc2ccc([N+](=O)[O-])cc2s1,15.1
24,O=C(Nc1ccccc1)/C(=C/c1cccc(Br)c1)NC(=O)c1ccco1,5.35
25,COCc1ccc(CN2CCCC(CO)(Cc3cccc(Cl)c3)C2)o1 (stereo not shown),-46.1
26,Cc1ccccc1NC(=O)c1ccc(NS(=O)(=O)c2cc(C(C)(C)C)cc(C)c2C)cc1,9.99
27,CCN(CC)CCCNC(=O)Cn1ncc2c(=O)oc3ccc(C)cc3c21,-7.17
